Experimental data taken from PubChem BioAssay AID2546 (National Center for Advancing Translational Sciences (NCATS), 2010).
About 11,000 (3.5%) of roughly 310,000 compounds were called active. Inconclusive means that the source gave no clear call. Such entries were picked first, then a sample of the others. Calls follow the shape of the dose curve; as a rule, active = well fitted inhibition curve with a large enough effect; inconclusive = small, poorly fitted or top-dose-only effect, or effect the other way; inactive = flat fitted curve, though single readings scatter. No potency is given beside an inconclusive call; the fits are too rough.

test: VP16 counterscreen qHTS for inhibitors of ROR gamma transcriptional activity; conditions: Drosophila S2 Gal4-VP16 UAS-luciferase, luminescence, 20 h; activity, negative = inhibition: at 53.6 µM (top of the series);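 also: Gal4-VP16 expression switched on by copper sulfate through the metallothionein promoter; nearly all actives have a fitted effect of over 50% in size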
Excerpt: NIH Molecular Libraries Probe Production Network [MLPCN]
NIH Chemical Genomics Center [NCGC]
Assay Provider: Dan Littman, New York University
The retinoic acid-related orphan receptor (ROR) gamma is a transcription factor that has a central role in the differentiation of Th17 cells, a subset of T helper cells that secrete the inflammatory cytokines IL-17, IL-17F, and IL-22. Th17 cells have been implicated in graft versus host disease, autoimmune disease and asthma. ROR gamma is induced in naive T helper cells in the presence of TGF-beta combined with IL-6, IL-21, or IL-23, and thereafter directs the expression of the Th17 lineage cytokines. To identify nonspecific inhibitors, a Drosophila Schneider cell line was stably transfected with two vectors: a gene expressing a fusion of the Gal4 DNA binding domain and VP16 transactivation domain under the control of the metallothionine promoter and a Photinus luciferase reporter regulated by the Gal4 binding site enhancer, UAS. […] Small molecule inhibitors that inhibit components common to the RORgt and VP16 assays, such as the Gal4 DNA binding domain or the UAS luciferase reporter, will be active in both assays and thus scored as nonspecific.
For screening, 600 cells in 4 uL/well were dispensed into white solid 1536-well plates (Grenier) using a solenoid-based dispenser. Following transfer of 23 nL compound or DMSO vehicle by a pin tool, the plates were incubated 1 hr at ambient temperature, and 1 uL/well copper sulfate (700 uM final concentration) was added. The plates were centrifuged 15 s at 1000 RPM and incubated 20 hr at ambient temperature. After addition of 1.5 uL Photinus luciferase detection reagent, the plates were incubated 10 min at ambient temperature and then read by a ViewLux (Perkin Elmer) to detect luminescence.
% is scaled to controls: 0 for no effect and ±100 for the full control effect; potency is read from the fitted curve at half-maximal effect; tags tell the direction and shape of the fitted curve.

Structure (SMILES)	Potency	activity, negative = inhibition
CC(=O)OC1C(N2CCCCC2)c2c(ccc(/C=C/C(=O)N3CCCCC3)c2O)OC1(C)C (centres undefined)	active: 1.26 µM	–
Cc1cc2c(C)cc(=O)[nH]c2cc1NC(=O)CCl	inconclusive [inhibitor, single point]	–
O=C(On1c(-c2ccccc2)nc2ccccc2c1=O)c1ccco1	inconclusive [inhibitor, single point]	–
CCCCCCCc1ccc(-c2ccc(O)cc2)nc1	inconclusive [inhibitor, partial curve]	–
CC(C(=O)Nc1ccc2c(c1)OCCO2)N1Cc2ccccc2C1=O (centres undefined)	–	inactive: 3.87%
CC(C)(C)OC(=O)C(C)(C)O/N=C(\C(=O)O)c1csc(N)n1	–	inactive: -3.06%
CCCN1C(=O)S/C(=C\c2ccc(N3CCOCC3)o2)C1=O	active: 4.47 µM	–
CCc1cccc(NC(=S)Nc2ccc(CN3CCOCC3)cc2)c1	active: 20 µM	–
Cc1cc(C(=O)COc2ccc(C#N)cc2)c(C)n1-c1ccc2c(c1)OCO2	inconclusive [inhibitor, single point]	–
O=[N+]([O-])c1ccc2c(c1Nc1ccccc1)=NC1(CCCCC1)N=2	inconclusive [inhibitor, partial curve, poor fit]	–
Cc1cc(-c2nn(-c3ccccc3F)cc2CN2CCCC(CO)C2)c(C)s1 (centres undefined)	–	inactive: -2.01%
CCOC(=O)C1CCN(S(=O)(=O)c2ccc3[nH]c(=O)ccc3c2)CC1	–	inactive: -1.41%
CCC(=O)Nc1cccc(-c2ccc(N3CCCCC3)nn2)c1	active: 2.82 µM	–
COc1ccc(-c2cc(C(=O)Nc3ccccc3SC)no2)cc1OC	inconclusive [inhibitor, single point]	–
Nc1ccc(C(=O)N/N=C\c2cc(N=Nc3cccc4ccccc34)ccc2O)cc1	active: 5.62 µM	–
CCOc1cc2[nH]c(=S)n(C3CCN(Cc4ccccc4)CC3)c(=O)c2cc1OCC	inconclusive [inhibitor, single point]	–
CCOC(=O)c1c(NS(=O)(=O)c2cccc(OC)c2)sc2c1CCC2	inconclusive [inhibitor, single point]	–
O=C1C(Cl)=C(Nc2ccc(O)cc2)C(=O)c2ccccc21	inconclusive [inhibitor, single point]	–
Cc1ccc(/C=N/NC(=O)c2ccncc2)s1	inconclusive [inhibitor, single point]	–
COc1ccc(OC)c(NC(=O)CCN2CCN(CCO)CC2)c1	–	inactive: -5.16%

Structure (SMILES)	Potency	activity, negative = inhibition
COc1cc2c(cc1OC)C(/C=C/c1ccc(OC)c(OC)c1OC)=NCC2	inconclusive [inhibitor, single point]	–
CCC(C)(C)c1nnc(NC(=O)c2cccc([N+](=O)[O-])c2)s1	inconclusive [inhibitor, single point]	–
O=C(Oc1cccc2cccnc12)c1ccc(Br)o1	inconclusive [inhibitor, single point]	–
O=C(N/N=C/c1ccoc1)c1ccccc1O	active: 17.8 µM	–
COCCNC(=S)NC(=O)CC12CC3CC(CC(C3)C1)C2	inconclusive [inhibitor, single point]	–
Cc1cccn2cc(COc3ccc(-c4ccccc4)cc3)nc12	inconclusive [inhibitor, single point]	–
CCOC(=O)c1oc2ccccc2c1NC(=O)COC	inconclusive [activator, single point]	–
COc1ccc(C(=O)NCC(O)CN2CCOCC2)cc1[N+](=O)[O-] (centres undefined)	–	inactive: -2.9%
CC(=O)N(C)c1ccc(OCC(O)CN(Cc2ccco2)S(=O)(=O)c2ccc(C)cc2)cc1 (centres undefined)	–	inactive: 3.58%
CC(C)Cc1ccc(S(=O)(=O)Nc2cccnc2)cc1	inconclusive [inhibitor, single point]	–
CC1=NN(c2ccccc2)C(=O)C1C=Nc1ccccc1O (centres undefined)	active: 4.47 µM	–
Cn1c(O)c(N=Nc2nc(-c3ccccc3)cs2)c2ccccc21	inconclusive [inhibitor, full curve, poor fit]	–
COc1ccc(Nc2oc(COc3ccc(Cl)cc3)nc2C#N)cc1	inconclusive [inhibitor, single point]	–
N#CC1=C(N)SC(N)=C(C#N)C1C1C=CCCC1 (centres undefined)	inconclusive [inhibitor, single point]	–
CC(C)(C)OC(=O)NCCCC[C@H](NC(=O)c1[nH]cnc1C(=O)Nc1ccc(Cl)cc1)C(=O)OC(C)(C)C	inconclusive [inhibitor, single point]	–
COc1ccc2c(c1[N+](=O)[O-])CCC/C2=N/OC(=O)c1cccc2ccccc12	active: 14.1 µM	–
CC(=O)c1cccc(NC(=S)NC2CCCCC2)c1	inconclusive [inhibitor, single point]	–
Cc1ccc(-c2cn(-c3ccccc3)c3[n+]2CCCS3)cc1	active: 11.2 µM	–
O=C(Nc1ccncc1)c1c(Cl)cccc1Cl	inconclusive [inhibitor, partial curve]	–
